± gives the uncertainty stated by the source. The sequences are guide strands of siRNAs; only the seed at positions 2 to 7 varies.
Legend:
[1] = system: HeyA8; test: cell viability relative to lipid-only control; higher = less toxic; settings: concentration: 10 nM; 96 h; Homo sapiens
[2] = system: M565; test: as above; settings: concentration: 10 nM; 96 h; Mus musculus
[3] = system: H460; test: as above; settings: concentration: 10 nM; 96 h; Homo sapiens
[4] = system: 3LL; test: cell viability relative to siNT1 control; HeyA8 human ovarian and H460 human lung cancer; M565 mouse liver and 3LL mouse lung cancer; siNT1 is a non-toxic control siRNA; higher = less toxic; settings: concentration: 10 nM; 96 h; Mus musculus;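 further: Luminescence-based viability of cells reverse transfected in 384-well plates with lipid-complexed siRNAs built on a non-toxic 19mer backbone whose passenger strand carries 2′-O-methyl groups at positions 1 and 2, triplicates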
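Wherever cell viability relative to lipid-only control is given: reverse lipid transfection in 384-well plates, in triplicate, of duplexes on a non-toxic 19mer backbone with passenger strand 2′-O-methylated at positions 1 and 2, luminescence viability read-out.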

Sequence | cell viability [1] [%] | cell viability [2] [%] | cell viability [3] [%] | cell viability [4] [%]
UUGGCCUACAUGUAAACCAAA | 80.6 ± 5 | 44.4 ± 2.2 | 89 ± 10 | 46.2 ± 12
UCAGUGUACAUGUAAACCAAA | 81.8 ± 14 | 51.4 ± 7.6 | 57.2 ± 2 | 94 ± 13
UGACACUACAUGUAAACCAAA | 35.6 ± 3.9 | 22 ± 6.8 | 29.5 ± 1.3 | 51.5 ± 5.5
UCGGAAAACAUGUAAACCAAA | 87.5 ± 7.9 | 69.2 ± 9.4 | 65.5 ± 2.5 | 92.9 ± 17
UACUUAAACAUGUAAACCAAA | 79 ± 4 | 81.9 ± 4.2 | 70.2 ± 11 | 86 ± 6.9
UUCCAAUACAUGUAAACCAAA | 85.3 ± 19 | 92 ± 10 | 94.6 ± 9.1 | 107 ± 12
UCCACGGACAUGUAAACCAAA | 63.4 ± 4.8 | 36.1 ± 7 | 51.7 ± 8.8 | 90.8 ± 28
UCACAAAACAUGUAAACCAAA | 90 ± 3.3 | 81.4 ± 11 | 28.2 ± 2.5 | 101 ± 14
UCUCAAUACAUGUAAACCAAA | 86.3 ± 6.8 | 74.3 ± 16 | 39.6 ± 6.6 | 98.1 ± 14
UAACAAGACAUGUAAACCAAA | 88.5 ± 7.6 | 75.2 ± 6.9 | 57.6 ± 9.8 | 95.8 ± 8.1
UAUAGUUACAUGUAAACCAAA | 91.2 ± 7.1 | 75.5 ± 23 | 82.6 ± 23 | 110 ± 9.8
UGGUCCGACAUGUAAACCAAA | 24.9 ± 2.4 | 21.9 ± 7.1 | 23.3 ± 3 | 57.9 ± 8.3
UUAUAAUACAUGUAAACCAAA | 88.1 ± 7.9 | 66.5 ± 5.1 | 65.9 ± 12 | 91.9 ± 7.1
UCCCACUACAUGUAAACCAAA | 89.8 ± 12 | 58.8 ± 14 | 56.9 ± 4.3 | 99.3 ± 15
UUUCUCGACAUGUAAACCAAA | 90.5 ± 7.2 | 79.5 ± 5.4 | 37.2 ± 6.8 | 99.3 ± 6.3
UCAGGGAACAUGUAAACCAAA | 79.3 ± 9.3 | 51.9 ± 3.1 | 49.5 ± 8.8 | 82.5 ± 19
UGUGCCGACAUGUAAACCAAA | 12.8 ± 0.24 | 54.8 ± 14 | 55.5 ± 3.2 | 38 ± 11
UAUAAGAACAUGUAAACCAAA | 101 ± 12 | 86.9 ± 18 | 91.3 ± 25 | 108 ± 21
UUAAUAAACAUGUAAACCAAA | 86 ± 5.5 | 99 ± 4 | 87 ± 24 | 100 ± 3.4
UCAGGAAACAUGUAAACCAAA | 88.3 ± 9.2 | 66.6 ± 5.3 | 66.2 ± 14 | 95 ± 22
UCGGAGGACAUGUAAACCAAA | 7.06 ± 0.93 | 24.1 ± 3.8 | 24.6 ± 4.5 | 81.2 ± 18
UAACCGGACAUGUAAACCAAA | 82.2 ± 3 | 46.1 ± 6.5 | 63.4 ± 5.4 | 79.3 ± 2.9

Sequence | cell viability [1] [%] | cell viability [2] [%] | cell viability [3] [%] | cell viability [4] [%]
UAAGAGCACAUGUAAACCAAA | 73.4 ± 7.8 | 65.4 ± 4.3 | 86.7 ± 5.6 | 18.6 ± 2.6
UUUAAUCACAUGUAAACCAAA | 88.9 ± 13 | 88.9 ± 6.1 | 77.9 ± 9.5 | 97.6 ± 4
UUGGGCCACAUGUAAACCAAA | 19.9 ± 6 | 13.5 ± 3.7 | 28.1 ± 1.7 | 25.7 ± 0.93
UAAAUUAACAUGUAAACCAAA | 97.1 ± 6 | 103 ± 14 | 80.8 ± 10 | 112 ± 12
UACCACCACAUGUAAACCAAA | 29.8 ± 10 | 7.05 ± 0.82 | 34.6 ± 4.1 | 17.8 ± 7.3
UUUGACAACAUGUAAACCAAA | 102 ± 2 | 89 ± 17 | 52.5 ± 2 | 101 ± 3.1
UACAGAAACAUGUAAACCAAA | 88.2 ± 8 | 46 ± 8.8 | 85.7 ± 6.3 | 85.4 ± 11
UCAACGGACAUGUAAACCAAA | 67.7 ± 4.6 | 77.3 ± 22 | 66 ± 5.2 | 101 ± 16
UCCUUUGACAUGUAAACCAAA | 82.2 ± 5.5 | 81.4 ± 8.7 | 76 ± 7.7 | 105 ± 15
UUAGCUGACAUGUAAACCAAA | 86.6 ± 2.7 | 108 ± 13 | 95.8 ± 12 | 92.8 ± 10
UUUGAAAACAUGUAAACCAAA | 104 ± 2.4 | 81.2 ± 5.5 | 74.6 ± 6.3 | 97.4 ± 4.1
UCGGGUAACAUGUAAACCAAA | 69.2 ± 13 | 66.4 ± 8.1 | 73.6 ± 15 | 87.9 ± 7.2
UGGAUUAACAUGUAAACCAAA | 91.2 ± 11 | 37.3 ± 3.4 | 77.3 ± 23 | 92.6 ± 8.5
UUCACAAACAUGUAAACCAAA | 89.1 ± 14 | 88 ± 14 | 38.4 ± 6.5 | 101 ± 22
UGGUGUAACAUGUAAACCAAA | 31.2 ± 3 | 37.8 ± 5.5 | 52.9 ± 5.6 | 89.3 ± 5.9
UCUCGGUACAUGUAAACCAAA | 75.4 ± 10 | 41.3 ± 8.4 | 45.2 ± 1 | 94.5 ± 13
UUGGUGAACAUGUAAACCAAA | 73.3 ± 2.7 | 59.9 ± 6.1 | 64.5 ± 3.4 | 26.4 ± 1.9
UGCGUCCACAUGUAAACCAAA | 38.7 ± 4.6 | 27.1 ± 3.9 | 55.9 ± 5 | 9.95 ± 1.1
UACUGCAACAUGUAAACCAAA | 77.9 ± 2.5 | 61.3 ± 3 | 73.7 ± 8.1 | 93.3 ± 10
UAGCAGAACAUGUAAACCAAA | 76.7 ± 4.8 | 39.3 ± 5.9 | 59.6 ± 4.7 | 81.1 ± 7.5
UAGGGCUACAUGUAAACCAAA | 10.8 ± 0.45 | 7.66 ± 2.9 | 49.8 ± 2.3 | 32.1 ± 11
UCCGUCGACAUGUAAACCAAA | 83.9 ± 7.7 | 104 ± 25 | 65.1 ± 14 | 101 ± 33

Sequence | cell viability [1] [%] | cell viability [2] [%] | cell viability [3] [%] | cell viability [4] [%]
UUAGAGCACAUGUAAACCAAA | 75.2 ± 4.8 | 90.1 ± 10 | 76.7 ± 6.1 | 11.2 ± 4.9
UCGGUCGACAUGUAAACCAAA | 54 ± 4.7 | 57 ± 8.8 | 43.3 ± 3.5 | 88.6 ± 8.9
UCGGUAUACAUGUAAACCAAA | 77.5 ± 2.9 | 72.4 ± 14 | 73.5 ± 8.1 | 91.5 ± 22
UCUACUCACAUGUAAACCAAA | 77.1 ± 4.5 | 69.6 ± 16 | 51.8 ± 1.7 | 103 ± 12
UACGGUUACAUGUAAACCAAA | 67.88 ± 0.44 | 85.8 ± 14 | 64.6 ± 4.2 | 79.1 ± 5.2
UAGUCCCACAUGUAAACCAAA | 32.2 ± 3.4 | 3.23 ± 0.65 | 30.8 ± 8.4 | 3.71 ± 0.28
UAAGACCACAUGUAAACCAAA | 56.7 ± 8.7 | 32.4 ± 3 | 59.9 ± 3.9 | 48.5 ± 6.2
UUGCCCUACAUGUAAACCAAA | 69.4 ± 3.4 | 31.9 ± 5.6 | 45.6 ± 6.3 | 11.9 ± 4.3
UCGUGAGACAUGUAAACCAAA | 82.8 ± 2.7 | 46.2 ± 2.5 | 63.4 ± 2.6 | 87.1 ± 16
UCGUUUGACAUGUAAACCAAA | 76.6 ± 3.6 | 80.2 ± 7.3 | 86.4 ± 17 | 88.1 ± 10
UGGGAACACAUGUAAACCAAA | 70.7 ± 6.8 | 64.5 ± 9.2 | 64 ± 8.1 | 90.6 ± 18
UAACACAACAUGUAAACCAAA | 92.7 ± 15 | 67.34 ± 0.63 | 49.1 ± 8.8 | 91.2 ± 3.8
UAGCAAUACAUGUAAACCAAA | 75.5 ± 20 | 51.6 ± 4 | 71 ± 7.5 | 88.3 ± 6.6
UAUAUACACAUGUAAACCAAA | 99 ± 18 | 90.4 ± 11 | 66.8 ± 1.4 | 73.8 ± 21
UAGACGCACAUGUAAACCAAA | 52.1 ± 2.8 | 20.2 ± 1 | 50.8 ± 5.3 | 13.9 ± 5.2
UUUGGAGACAUGUAAACCAAA | 98.4 ± 3.9 | 54.6 ± 5.4 | 80 ± 11 | 98.4 ± 7
UCCAAUUACAUGUAAACCAAA | 74.5 ± 6.9 | 65.8 ± 4.1 | 76.4 ± 12 | 109 ± 32
UCCCGCGACAUGUAAACCAAA | 82.3 ± 5.1 | 74.3 ± 19 | 84.9 ± 16 | 102 ± 15
UGAGCUGACAUGUAAACCAAA | 38.1 ± 1.4 | 9.92 ± 1.8 | 49.5 ± 2.3 | 33.6 ± 6.4
UCGUACUACAUGUAAACCAAA | 41.3 ± 3.8 | 81.7 ± 11 | 60.6 ± 9.4 | 76.8 ± 23
UACGACAACAUGUAAACCAAA | 89.1 ± 12 | 77 ± 8 | 75 ± 14 | 88.8 ± 5.8
UUUGAGUACAUGUAAACCAAA | 85.6 ± 2.5 | 57.2 ± 4.2 | 66.4 ± 3.2 | 54.7 ± 8.9

Sequence | cell viability [1] [%] | cell viability [2] [%] | cell viability [3] [%] | cell viability [4] [%]
UGCAGUGACAUGUAAACCAAA | 25.6 ± 4.3 | 65.6 ± 5 | 54.8 ± 0.68 | 66.8 ± 12
UCCCCGUACAUGUAAACCAAA | 82.7 ± 4.6 | 41.7 ± 15 | 71.5 ± 14 | 75.1 ± 17
UAAUAAGACAUGUAAACCAAA | 89.2 ± 5.5 | 93.4 ± 22 | 98.2 ± 5.5 | 115 ± 6.1
UGUGGGGACAUGUAAACCAAA | 3.28 ± 0.59 | 7.71 ± 4.2 | 20.3 ± 1.6 | 13.7 ± 4
UGCACCCACAUGUAAACCAAA | 13.3 ± 1.1 | 14.3 ± 10 | 35.4 ± 2.6 | 8.83 ± 1.5
UUGAUCAACAUGUAAACCAAA | 71.8 ± 9.7 | 92.7 ± 2.3 | 63.2 ± 8.8 | 92.4 ± 9.4
UUGGUCAACAUGUAAACCAAA | 87.1 ± 3.5 | 122 ± 25 | 44.2 ± 1.9 | 94.2 ± 11
UCUACUAACAUGUAAACCAAA | 86.5 ± 9.5 | 61.6 ± 8.8 | 86.8 ± 21 | 98.9 ± 18
UCGUUGGACAUGUAAACCAAA | 29.1 ± 1.5 | 22 ± 6 | 51 ± 1.6 | 47.8 ± 8.4
UAUAAGCACAUGUAAACCAAA | 86.1 ± 13 | 91.3 ± 12 | 55.9 ± 7.8 | 48.6 ± 6.8
UGAAAUGACAUGUAAACCAAA | 73 ± 5.4 | 67 ± 9.1 | 90 ± 15 | 105 ± 14
UUUCGCAACAUGUAAACCAAA | 100 ± 4.2 | 86 ± 9 | 83.6 ± 8.9 | 94.2 ± 4.1
UAAACGGACAUGUAAACCAAA | 74.4 ± 16 | 84.8 ± 13 | 69 ± 9.1 | 83.1 ± 4.8
UCCCAAAACAUGUAAACCAAA | 93 ± 9.9 | 73.3 ± 13 | 59.6 ± 8.2 | 97.8 ± 10
UACAGCGACAUGUAAACCAAA | 92.7 ± 6.5 | 70.4 ± 16 | 82.7 ± 18 | 90.6 ± 6.7
UUAGAAAACAUGUAAACCAAA | 101 ± 7.1 | 86.3 ± 8.4 | 88.1 ± 30 | 100 ± 4.3
UUCGCUGACAUGUAAACCAAA | 93.6 ± 15 | 76.9 ± 15 | 78.9 ± 7.1 | 68.4 ± 18
UAAACGUACAUGUAAACCAAA | 80.7 ± 21 | 73 ± 16 | 104 ± 9.1 | 75.4 ± 5.8
UAUAUCAACAUGUAAACCAAA | 99.7 ± 8.2 | 98.9 ± 7.8 | 69.8 ± 6.8 | 99 ± 20
UUGAAGAACAUGUAAACCAAA | 91.7 ± 7 | 67.3 ± 8 | 116 ± 26 | 90.6 ± 5.5
UAGAAAGACAUGUAAACCAAA | 84.2 ± 8.4 | 72.9 ± 14 | 80.8 ± 16 | 91.4 ± 8.8
UCGCUUGACAUGUAAACCAAA | 54.1 ± 3.9 | 63.9 ± 9.6 | 69.1 ± 3.4 | 87.6 ± 23

Reference: the supplement of paper PMC6206098
